From PubChem BioAssay AID485344 (National Center for Advancing Translational Sciences (NCATS), 2010)
Where “and” joins values, the source holds several entries; their conditions need not be identical. Identical values can stand only once. Out of some 340,000 compounds screened, about 6,900 (2%) were called active. No stated cut-off is given here; in the data, active means inhibition above about 30%; inactive means below that, where a call was filed. Only a part is listed here, and it is no random draw. Where no call is shown, the source filed none.
Further: 0% is about no effect.

These compounds were tested against D(2) dopamine receptor (Homo sapiens) (UniProt P14416) (assay: HTS Assay for Allosteric Antagonists of the Human D2 Dopamine Receptor: Primary Screen for Antagonists). Conditions: HEK293 TREx D2 cells, calcium flux, dopamine EC80; at 10 µM; stronger effect = higher value.
UniProt P14416, sequence (P14416 whole entry, looked up): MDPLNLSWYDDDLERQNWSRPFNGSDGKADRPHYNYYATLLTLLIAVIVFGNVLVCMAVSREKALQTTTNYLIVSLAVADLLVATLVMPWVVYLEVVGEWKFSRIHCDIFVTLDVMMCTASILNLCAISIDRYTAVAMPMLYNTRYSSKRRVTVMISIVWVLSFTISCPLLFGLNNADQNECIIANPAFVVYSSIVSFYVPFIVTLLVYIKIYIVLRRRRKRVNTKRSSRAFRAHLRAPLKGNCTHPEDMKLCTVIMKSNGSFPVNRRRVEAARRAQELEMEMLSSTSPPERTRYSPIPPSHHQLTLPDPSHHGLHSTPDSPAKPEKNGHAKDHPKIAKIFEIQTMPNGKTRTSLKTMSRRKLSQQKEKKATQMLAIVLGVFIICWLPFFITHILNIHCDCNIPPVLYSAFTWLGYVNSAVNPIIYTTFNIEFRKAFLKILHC
How it was run: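 Dopamine at EC80 is the agonist stimulus; test compounds precede it by 180 s. Calcium flux read kinetically in a force-coupled, inducible HEK293 T-REx D2 cell line.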
With CCOc1ccc(CCNC(=O)c2ccc3c(c2)N(Cc2ccc(C)cc2)CCS3)cc1 the inhibition was -22.6%. Fc1ccc(Nc2ncnc3onc(-c4ccc(Cl)cc4)c23)cc1Cl was tested, and the inhibition was -12.3%. CCN(CC)CCCNc1sc(S(=O)(=O)c2ccccc2)nc1S(=O)(=O)c1ccc(Cl)cc1 showed an inhibition of 27.2%. With CCN(C(=O)c1sc2nc3n(c(=O)c2c1C)CCCCC3)c1ccc(OC)cc1 the inhibition was 21.1%. Compound Cc1ccc(C(=O)c2cn(Cc3ccccc3)c3ccccc3c2=O)cc1 has an inhibition of -0.0133%. Work on Cc1cccc(-c2nc3cc(NC(=O)COc4ccccc4F)ccc3o2)c1 yielded an inhibition of 9.99%. For Cc1ccccc1OCC(=O)Nc1ccccc1C(=O)OCc1cc(=O)n2nc(C3CC3)sc2n1, the inhibition was 7.22%. Cc1ccc(-c2c3c(=O)n(C)c(=O)n(C)c3c3c(C)nc4ccccc4n23)cc1 showed an inhibition of 9.48%. COc1ccc(NC(=O)Cn2ccn(-c3ccc(C)c(C)c3)c(=O)c2=O)cc1Cl gave an inhibition of -26.8%. Cc1cc(N2CCN(c3ccc(F)cc3)CC2)n2cnnc2n1 showed an inhibition of 8.91%. With COc1ccc(Cl)cc1NC(=O)CSc1nc(=O)[nH]c2c1CCC2 the inhibition was -1.82%. For CCC(=O)c1ccccc1OCCN1CCN(CC)CC1, the inhibition was active: 37.5%. For O=C(O)c1cc(S(=O)(=O)O)ccc1O, the inhibition was active: 42.4%. For O=C(NNC(=O)c1ccc(F)cc1F)c1ccc2c(c1)OCO2, the inhibition was active: 37%. With COCCOc1ccc(C(F)(F)F)cc1NC(=O)c1ccc(C(F)(F)F)cc1 the inhibition was active: 58.6%. In the case of O=C(NCC1OCCc2ccccc21)c1cc(COc2ccc(F)cc2Cl)on1 (configuration not stated), the inhibition is reported as active: 50.2%. With O=C(CSc1nc(=O)n(Cc2ccccn2)c2c1CCC2)Nc1cccc(Cl)c1 the inhibition was 2.83%. COCCNC(=O)CSc1nc(-c2ccc(C)cc2)[nH]c1-c1ccc(OC)cc1 was tested, and the inhibition was 23.3%. For CCCc1nn2c(=O)cc(COC(=O)c3ccccc3NC(=O)c3ccc(OCC)cc3)nc2s1, the inhibition was -19.2%. O=C(Nc1ccc(Cl)cc1F)c1cc(S(=O)(=O)NC2CCCCCC2)ccc1F gave an inhibition of 6.06%. CCc1ccc(NC(=O)CN2C(C(=O)OC)=C(c3ccccc3)c3ccccc3S2(=O)=O)cc1 showed an inhibition of -8.71%. Work on CC(C)CCNC(=O)C1CCC(CNS(=O)(=O)c2cccc3nsnc23)CC1 (configuration not stated) yielded an inhibition of 5.18%. CC(C)=CC(=O)N1CC[C@@H](N2CCN(c3ccccc3F)CC2)[C@H](O)C1 was tested, and the inhibition was active: 46.3%. In the case of OC(c1ccccc1)c1nc2ccccc2n1Cc1c(F)cccc1Cl (configuration not stated), the inhibition is reported as -4.97%. With Cc1oc2ncnc(N3CCOCC3)c2c1C(=O)Nc1ccc(Br)cc1F the inhibition was 2.38%. Fc1ccc(-n2nc(-c3ccccc3)c3cnc4ccccc4c32)cc1Cl gave an inhibition of 1.19%. CCOc1ccc(-c2cc3c(=O)n(CC(=O)NCc4ccccc4)ccn3n2)cc1 was tested, and the inhibition was -2.65%. COc1ccccc1CNc1ncnc2c1nc1n2CCCC1 gave an inhibition of -0.661%. In the case of Oc1cc2c(cc1CN1CCN(c3ncccn3)CC1)OCO2, the inhibition is reported as active: 83.4%. Cc1ccc(Cl)cc1NC(=O)c1cc(S(=O)(=O)N2CCOCC2)cn1C gave an inhibition of 12.1%. With COc1ccccc1CNS(=O)(=O)c1c(C)nc2sc(C)cn2c1=O the inhibition was -7.68%. In the case of Cc1cc(NC(=O)c2cc(-c3ccc(F)cc3)on2)nn1Cc1ccc(Cl)cc1, the inhibition is reported as 5.15%. O=C(O)c1ccc2c(c1)N(Cc1ccc(F)cc1)C(=O)c1ccccc1S2=O (configuration not stated) was tested, and the inhibition was -18.7%. For Cc1ccc2c(CC(=O)Nc3ccc(S(=O)(=O)N4CCCC(C)C4)cc3)coc2c1 (configuration not stated), the inhibition was -10.5%. For O=C(NCCc1ccccc1)c1ccc2c(c1)CCN2S(=O)(=O)c1ccc(Cl)cc1, the inhibition was -17.5%. CC1CCN(S(=O)(=O)c2ccc3c(c2)N(CC(=O)NCCN(C)C)C(=O)CS3)CC1 showed an inhibition of -10.2%. COC(=O)c1cc(NC(=O)Cn2ncc3c([nH]c4ccccc43)c2=O)cc(C(=O)OC)c1 was tested, and the inhibition was 6.94%. O=C(Cn1c(=O)c2cccn2c2ccc(F)cc21)Nc1cccc(F)c1 gave an inhibition of 4.19%. CCCCN(C)C(=O)C1CCC(Cn2c(=O)[nH]c3ccsc3c2=O)CC1 (configuration not stated) showed an inhibition of 5.62%. Compound COCCNC(=O)CCCn1c(SCc2ccccc2C)nc2c(sc3ccccc32)c1=O has an inhibition of 3.3%. With CC(=O)N1CCc2cc(C(=O)CN3CCN(c4ccccn4)CC3)ccc21 the inhibition was active: 93.4%. Compound CCn1cc(/C=C(\NC(=O)c2ccccc2Cl)C(=O)NCCCn2ccnc2)c2ccccc21 has an inhibition of -5%. In the case of Cc1ccc(C2N3CC4(C)CN2CC(c2ccccc2)(C3)C4=O)cc1 (configuration not stated), the inhibition is reported as 17.9%. In the case of CCOCCCNC(=O)C(c1ccc(Cl)cc1)N(Cc1ccc2c(c1)OCO2)C(=O)c1ccc(NC(C)=O)cc1 (configuration not stated), the inhibition is reported as -4.91%. Cc1ccc(CNC(=O)c2ccc(N3Cc4ccccc4Oc4ncccc43)s2)cc1 was tested, and the inhibition was 11.4%. Work on CCOc1ccc(C(=O)Nc2ccc(C(=O)OCc3cc(=O)n4c(C)csc4n3)cc2)cc1 yielded an inhibition of -10%. For CCC(=O)Nc1ccc(-c2nc3ncccc3o2)cc1C, the inhibition was -3.9%. Oc1c(C(c2ccc(Cl)cc2Cl)N2CCN(Cc3ccccc3)CC2)sc2nc(-c3ccco3)nn12 (configuration not stated) gave an inhibition of -17.1%. With CCOC(=O)N1CCN(C(=O)C2CCN(S(=O)(=O)c3cc(C)ccc3OC)CC2)CC1 the inhibition was active: 33.4%. Work on CC(=O)c1cccc(NC(=O)c2cc3sc(Cl)cc3n2C)c1 yielded an inhibition of -2.21%. For Cc1ccc(CNC(=O)Cn2ccn(-c3ccc(F)c(F)c3)c(=O)c2=O)cc1, the inhibition was -0.46%. CCC(Sc1nc2ccncc2[nH]1)C(=O)Nc1cc(C)ccc1C (configuration not stated) gave an inhibition of -11.1%. CCC(=O)N1CCc2cc(S(=O)(=O)NCCC(=O)Nc3ccc(C)cc3C)ccc21 was tested, and the inhibition was 2.88%. CC1CCc2noc(NC(=O)c3ccc([N+](=O)[O-])cc3)c2C1 (configuration not stated) gave an inhibition of -5.53%. With Cc1ccc(NC(=O)CN2C(=O)c3ccccc3Sc3ccc(C(=O)N4CCOCC4)cc32)cc1C the inhibition was 7.49%. For COc1ccc(N(CC(=O)NCCSCc2ccc(C)cc2)S(=O)(=O)c2ccccc2)cc1, the inhibition was active: 30.8%. For COc1ccccc1OCCNCC(O)COc1cccc2[nH]c3ccccc3c12 (configuration not stated), the inhibition was active: 59.1% and active: 51.5%. In the case of O=C1Nc2ccccc2C1Cc1ccc(Br)cc1 (configuration not stated), the inhibition is reported as -1.93%. Cc1ccc(NC(=O)CSc2nc3nccnc3c(=O)n2CCc2c[nH]c3ccccc23)cc1C gave an inhibition of 23.4%. In the case of Oc1ccccc1Cn1c(-c2ccccc2O)nc2ccccc21, the inhibition is reported as active: 33.6%. Cc1ccccc1OCCSc1nc2ccc(NC(=O)c3ccco3)cc2s1 gave an inhibition of 9.27%. With COC(=O)c1ccccc1NC(=O)Cn1c(=O)n(-c2ccc(C)cc2)c(=O)c2ccccc21 the inhibition was 5.43%.
